Data: patent US5348949A, “Method of preparing N-oxo-tetrahydro-β-carbolines” (Duphar International Research B.V., priority 1989, dated 1994)
In brackets after ≈: the same amount, converted by molar mass.

Experiments:
Assay in all cases: microbe, parasite or virus in culture
[1] = tested on: Herpes simplex virus-1 (B2006) #3; conditions: Human alphaherpesvirus 1, read-out: MIC Herpes simplex virus-1 (B2006) #3
Protocol: (§1) Antiviral activity of some eudistomin derivatives was determined in a large number of in-vitro assays as described in reference 9. These tests are all based on the inhibition of virus induced cytopathogenicity. Depending upon the virus studied, different cell cultures were used. […] New compound 67 has the additional advantage of a 10-fold higher potency as compared with known compound 63.

[2] = tested on: Herpes simplex virus-1 (B2006) C137/101; conditions: Human alphaherpesvirus 1, read-out: MIC Herpes simplex virus-1 (B2006) C137/101
Protocol: as §1

[3] = tested on: Herpes simplex virus-1 (B2006) C158/77; conditions: Human alphaherpesvirus 1, read-out: MIC Herpes simplex virus-1 (B2006) C158/77
Protocol: as §1

Structure (SMILES) | MIC [1] | MIC [2] | MIC [3]
N[C@@H]1CSCON2CCc3c([nH]c4ccccc34)[C@H]12 [Compound 63, (1S.13bS)-debromo Eudistomin L] | 0.85 µg/mL (≈ 3.09 µM) | 0.7 µg/mL (≈ 2.54 µM) | 0.7 µg/mL (≈ 2.54 µM)
COc1ccc2[nH]c3c(c2c1)CCN1OCSCC(N)C31 [Compound 67, (1S,13bS)-5-methoxy Eudistomin L] | 0.055 µg/mL (≈ 0.18 µM) | 0.0085 µg/mL (≈ 0.0278 µM) | 0.023 µg/mL (≈ 0.0753 µM)
NC(=O)c1ncn([C@@H]2O[C@H](CO)[C@@H](O)[C@H]2O)n1 [Ribavirin, ribavirin, reference compound] | > 200 µg/mL | > 200 µg/mL | > 200 µg/mL
c1ccc2c3c([nH]c2c1)C1CCSCON1CC3 (racemic) [Compound 50, (±)-Deamino, debromo Eudistomin L] | > 70 µg/mL | > 70 µg/mL | > 70 µg/mL
